Our source for the GI50 and TGI values is PubChem BioAssay (NCI).

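In this assay, cells in 96-well plates receive the compound at five concentrations for 48 hours. Endpoints are linearly interpolated between the surrounding concentrations. GI50 is the concentration that inhibits growth by half. TGI: total growth inhibition.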

This experiment concerns NCI-H322M lung. In words: inhibition of tumour cell growth, NCI panel, 48 h.
On to `COc1ccc2nc3cccc([N+](=O)[O-])c3c(NCCN(CCO)CCO)c2c1`, for which the GI50 was 110 nM and the TGI is 1.39 µM.

Turning to `CC(=O)Nc1ccc2c3c(cc(O)c2c1)N(C(=O)CCCC(=O)Nc1ccc2c4c(cc(O)c2c1)N(C(=O)OC(C)(C)C)CC4CCl)CC3CCl` (stereo not drawn), the TGI is 24.9 µM. `CCOC(=O)c1ccc2c(c1)[n+](=O)c(C(=O)c1ccc3ccccc3c1)c(C(F)(F)F)n2[O-]`: the GI50 is 1630 nM and the TGI worked out at 2.99 µM. In the case of `Cn1c(N(CCO)CCO)cnc1[N+](=O)[O-]`, the TGI was above 100 µM. In the case of `C#CC[C@@H]1C[C@]2(C)[C@H]3CC[C@@H]4[C@H]5[C@H](C(=C)C)CC[C@]5(C(=O)O)CC[C@@]4(C)[C@]3(C)CC[C@H]2C(C)(C)[C@H]1O`, the GI50 is 3090 nM and the TGI was 16.7 µM. For the molecule `CCCCOP(=O)(OCCCC)/C(C#N)=C/c1ccc(C)o1`, the TGI was above 100 µM. `COC(=O)C(/C(=N/N)C(=O)Nc1ccc(C)c(C)c1)c1nc2ccc(Cl)cc2[nH]c1=O` (stereo not drawn) registered a TGI above 100 µM.

Turning to `CC(=O)OCc1cccc(O)c1C(=O)CCC=C(C)C`, the TGI is above 100 µM. Take `Cc1ccc(Cl)cc1Nc1nc(C(F)(F)F)ccc1C(=O)N/N=C/c1c(Cl)cccc1Cl`: the GI50 was 660 nM and the TGI was determined as 13.5 µM. As to `Fc1ccc(-c2ncn(C3CCNCC3)c2-c2ccnc(Oc3ccccc3)n2)cc1`, the GI50 was above 25000 nM and the TGI was above 25 µM. Turning to `C/C(O)=C(/C=N\C(=S)Nc1ccc(Cl)c(Cl)c1)C(=O)Nc1ccccc1C`, the TGI was above 100 µM. Molecule `O=C(Nc1ccc(Cl)c(Cl)c1)C(=O)C(C1OC(=O)c2ccccc21)[N+](=O)[O-]` (stereo not drawn) had a TGI above 100 µM. The molecule `C=C[C@@]1(C)CC2CC[C@]3(C)C(C)=CC(=O)CC3[C@]2(C)CC1O` (stereo partly drawn) came in with a TGI above 100 µM. The molecule `CN(C)CCCc1cccnc1` gave a TGI above 100 µM. Take `CCOC(=O)C1=C(OS(=O)(=O)C(F)(F)F)CCCC1`: the TGI was above 100 µM. Same read-out and setting: the figure for `O=C(c1ccccn1)c1nnn2ccccc12` is above 100 µM. As to `C(=N/Nc1ncnc2nc[nH]c12)/c1ccccn1`, the GI50 is 199 nM and the TGI was 22.6 µM. Turning to `CN(C)C(=S)N/N=C\C(=N/NC(=S)N(C)C)c1ccccc1`, the TGI is above 100 µM. The same measure, in the same setting: under `c1ccc2c(c1)ccc1ncccc12` stands above 100 µM; under `CCOC(=O)NC(=O)c1cn(CCCCCOC(=O)NCCCCCCNC(=O)OCCCCCn2cc(C(=O)NC(=O)OCC)c(=O)[nH]c2=O)c(=O)[nH]c1=O`, above 100 µM; under `O=c1cc2n(c(=O)[nH]1)C1OC(C(O)C1O)[C@H]2CCO` (stereo partly drawn), above 100 µM. In the case of `Cc1ccccc1N=Cc1ccc(N(CCC#N)S(=O)(=O)c2ccccc2)cc1`, the TGI is above 100 µM. The molecule `COc1ccc(C(=O)/C(=N/Nc2ccccc2)c2ccc(OC)cc2)cc1` came in with a TGI above 100 µM. `Cc1ccc(S(=O)(=O)c2c(N)c3nccn3c3nc4ccccc4nc23)cc1` showed a TGI above 100 µM. For the molecule `O=C(/C=C/C=C/c1ccccc1)c1ccc(Nc2nc(Nc3ccccc3)nc(Nc3ccccc3)n2)cc1`, the GI50 was above 100000 nM and the TGI was above 100 µM. In the case of `O=S(=O)(O)c1ccc(Cl)cc1.[Cd]`, the GI50 was above 100000 nM and the TGI was above 100 µM.

Regarding `COc1ccc(CN2C(=O)C(Cc3cc(OC)c(OC)c(C)c3OC)N(C(=O)OC(C)C)C(=O)/C2=C/c2cc(OC)c(OC)c(C)c2OC)cc1` (stereo not drawn), the TGI is above 100 µM.

As for `O=C(O)CN1CCNCCN(CC(=O)O)CCNCC1`, the TGI was above 100 µM.

Molecule `COC(=O)NNc1c([N+](=O)[O-])cnn(-c2ccccc2)c1=O` yielded a TGI of 10.4 µM. `Cn1c(=O)oc2cc(C(=S)N3CCC(Cc4ccccc4)CC3)ccc21` gave a TGI above 100 µM. Molecule `COc1ccc2c(C)cc(N/N=C/c3sccc3C)nc2c1` came in with a TGI of 15.9 µM. In the case of `O=C(/C=C/c1ccccn1)c1ccccc1O`, the GI50 was 2160 nM and the TGI was determined as 4.78 µM. As for `O=C(Cn1c(C(=O)/C=C/c2ccco2)nc2ccccc21)c1ccc(Cl)cc1`, the TGI is above 100 µM. Turning to `Oc1ccc2ccccc2c1-c1c(Nc2ccccc2)ccc2ccccc12`, the TGI was found to be 28.6 µM.
